Assay results: US10336829B2, “Intracellular delivery compounds” (Sorrento Therapeutics, Inc., priority 2015, dated 2019)

Target: STAT3 (Homo sapiens, UniProt P40763)
Experiment: Cell binding assay of anti-STAT3 antibodies, fixed and permeabilized cells, flow cytometry
Design: endogenous in cells
Conditions: MDA-MB-468 and U251 cells, serial dilutions, PE anti-human IgG
Protocol: Next, the binding of the candidate anti-STAT3 antibodies to cellular targets was tested in cell binding assays using MDA-MB-435 breast cancer cells and U251 cells. The cells were seeded overnight in a 96 well plate, then fixed with PFA and permeabilized with methanol. Cells were incubated with serial dilutions of the anti-STAT3 antibody candidates ST1A5, ST3G12 and ST5G12 for one hour and 30 minutes. Following incubation, the cells were washed and incubated for 30 minutes with phycoerythrin (PE) conjugated anti-human IgG. Fluorescence was measured on an Intellicyte high-throughput flow cytometry analyzer. […] Bevacizumab (Avastin), a monoclonal antibody that inhibits vascular endothelial growth factor A (VEGF-A) was used as a negative control.

Chain of STAT3 (P40763 whole entry): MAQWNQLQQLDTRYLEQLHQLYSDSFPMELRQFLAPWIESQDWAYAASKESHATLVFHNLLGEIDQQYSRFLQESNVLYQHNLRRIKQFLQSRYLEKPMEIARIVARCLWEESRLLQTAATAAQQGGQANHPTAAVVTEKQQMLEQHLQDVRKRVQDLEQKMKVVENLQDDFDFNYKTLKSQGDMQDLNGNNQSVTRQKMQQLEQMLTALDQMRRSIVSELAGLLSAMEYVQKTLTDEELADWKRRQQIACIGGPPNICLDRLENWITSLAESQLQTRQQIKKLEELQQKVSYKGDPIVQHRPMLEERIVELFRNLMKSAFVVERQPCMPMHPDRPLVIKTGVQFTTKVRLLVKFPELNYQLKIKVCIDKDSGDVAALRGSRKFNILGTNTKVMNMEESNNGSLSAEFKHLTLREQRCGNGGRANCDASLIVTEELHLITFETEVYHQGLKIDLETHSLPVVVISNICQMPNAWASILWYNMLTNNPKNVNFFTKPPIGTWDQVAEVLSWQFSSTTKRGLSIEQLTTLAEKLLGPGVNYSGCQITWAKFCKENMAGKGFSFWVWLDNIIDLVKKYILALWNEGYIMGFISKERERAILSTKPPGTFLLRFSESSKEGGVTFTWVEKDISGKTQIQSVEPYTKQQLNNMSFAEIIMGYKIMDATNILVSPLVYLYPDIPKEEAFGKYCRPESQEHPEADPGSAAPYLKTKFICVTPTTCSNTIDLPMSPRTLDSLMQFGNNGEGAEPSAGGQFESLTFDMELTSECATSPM

B1: ST1A5: Human anti-human STAT3 antibody; heavy chain variable SEQ ID NO: 1, light chain variable SEQ ID NO: 2 (antibody, V domains shown)
VH: [letters of about 100 residues not shown]DGGLGWGTYFRLGDAFDIWGQGTMVTVSS
VL: QSVLTQPPSVSKGLRQTATLTCTGNSNNVGNEGAAWLQQHQGHPPKLLSYRNFNRPSGISERFSASRSGNTASLTITGLQPEDEADYYCSAWDSSLSAWVFGGGTKLTVL
binding to STAT3 / cellular antigens (MFI): did not show strong STAT3 binding
